Data reported in publication PMC12820563, “FoxP3 forms a head-to-head dimer in vivo and stabilizes its multimerization on adjacent microsatellites”.
The other results are listed elsewhere or left out.

What follows are sequences tested against T1, MBP-FoxP1dN (Mus musculus, UniProt P58462 326-579) (assay: PD-seq (MBP pull-down with sequencing); 20 mM Tris-HCl pH 7.5, 100 mM NaCl, 1.5 mM MgCl2, 0.4 uM protein, 0.1 uM dsDNA library, 30 min, room temperature, amylose pull-down; high values mean tight binding). Conditions: protein: recombinant; tags: His6-MBP; chain copies: 2; dsDNA, one strand shown.
T1 sequence: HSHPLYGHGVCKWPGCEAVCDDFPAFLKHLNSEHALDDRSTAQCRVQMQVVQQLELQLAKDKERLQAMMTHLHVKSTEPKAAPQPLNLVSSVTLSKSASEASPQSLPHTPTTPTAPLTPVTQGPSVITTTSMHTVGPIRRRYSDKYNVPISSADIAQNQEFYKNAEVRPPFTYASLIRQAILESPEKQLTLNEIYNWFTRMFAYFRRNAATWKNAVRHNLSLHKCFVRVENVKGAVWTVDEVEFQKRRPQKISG
Summary of the method: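 Binding is the reads-per-million enrichment of pull-down relative to input, pooled across replicates. For this, 0.4 µM His6-MBP-tagged mouse FoxP3 or FoxP1 fragment lacking the N-terminus, made in E. coli, was incubated with 0.1 µM Klenow-filled double-stranded degenerate DNA library for 30 min at room temperature in Tris pH 7.5 buffer with NaCl and MgCl2. Complexes bound to amylose resin were washed three times before proteinase K released the DNA for PCR barcoding and Illumina sequencing.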

Sequence | binding signal
GATGATTGTTCTCCCAGCTGATGAATTGCAACAATCGAGTAAACAAATTTTCCTAATCTTTCTGTTCAAGCGCCATCTAC | 1.91 RPM ratio (pull-down/input)
GATGATTGTTCTCCCAGCTGATGAATTACCCTCGTCGAGTAAACAAATTTTCCTAATCTTTCTGTTCAAGCGCCATCTAC | 0.871 RPM ratio (pull-down/input)
GATGATTGTTCTCCCAGCTGATGAATTCTCGTCATCGAGTAAACAAATTTTCCTAATCTTTCTGTTCAAGCGCCATCTAC | 0.998 RPM ratio (pull-down/input)
GATGATTGTTCTCCCAGCTGATGAATTTGTCCAATCGAGTAAACAAATTTTCCTAATCTTTCTGTTCAAGCGCCATCTAC | 1.2 RPM ratio (pull-down/input)
GATGATTGTTCTCCCAGCTGATGAATTTGCCGGATCGAGTAAACAAATTTTCCTAATCTTTCTGTTCAAGCGCCATCTAC | 0.839 RPM ratio (pull-down/input)
GATGATTGTTCTCCCAGCTGATGAATTTATTTTTTCGAGTAAACAAATTTTCCTAATCTTTCTGTTCAAGCGCCATCTAC | 1.41 RPM ratio (pull-down/input)
GATGATTGTTCTCCCAGCTGATGAATTGGGCGCTTCGAGTAAACAAATTTTCCTAATCTTTCTGTTCAAGCGCCATCTAC | 0.892 RPM ratio (pull-down/input)
GATGATTGTTCTCCCAGCTGATGAATTAACCTCCTCGAGTAAACAAATTTTCCTAATCTTTCTGTTCAAGCGCCATCTAC | 0.811 RPM ratio (pull-down/input)
GATGATTGTTCTCCCAGCTGATGAATTCGGACAATCGAGTAAACAAATTTTCCTAATCTTTCTGTTCAAGCGCCATCTAC | 1.07 RPM ratio (pull-down/input)
GATGATTGTTCTCCCAGCTGATGAATTTGGTTGTTCGAGTAAACAAATTTTCCTAATCTTTCTGTTCAAGCGCCATCTAC | 1.29 RPM ratio (pull-down/input)
GATGATTGTTCTCCCAGCTGATGAATTGGCACGCTCGAGTAAACAAATTTTCCTAATCTTTCTGTTCAAGCGCCATCTAC | 0.914 RPM ratio (pull-down/input)
GATGATTGTTCTCCCAGCTGATGAATTAGATGGATCGAGTAAACAAATTTTCCTAATCTTTCTGTTCAAGCGCCATCTAC | 0.927 RPM ratio (pull-down/input)
GATGATTGTTCTCCCAGCTGATGAATTCGGCGGCTCGAGTAAACAAATTTTCCTAATCTTTCTGTTCAAGCGCCATCTAC | 0.759 RPM ratio (pull-down/input)
GATGATTGTTCTCCCAGCTGATGAATTACGCCACTCGAGTAAACAAATTTTCCTAATCTTTCTGTTCAAGCGCCATCTAC | 1.02 RPM ratio (pull-down/input)
GATGATTGTTCTCCCAGCTGATGAATTCGTAGCCTCGAGTAAACAAATTTTCCTAATCTTTCTGTTCAAGCGCCATCTAC | 0.888 RPM ratio (pull-down/input)
GATGATTGTTCTCCCAGCTGATGAATTTACTGTATCGAGTAAACAAATTTTCCTAATCTTTCTGTTCAAGCGCCATCTAC | 1.42 RPM ratio (pull-down/input)
GATGATTGTTCTCCCAGCTGATGAATTCAGGACATCGAGTAAACAAATTTTCCTAATCTTTCTGTTCAAGCGCCATCTAC | 0.996 RPM ratio (pull-down/input)
GATGATTGTTCTCCCAGCTGATGAATTAATTTAATCGAGTAAACAAATTTTCCTAATCTTTCTGTTCAAGCGCCATCTAC | 0.99 RPM ratio (pull-down/input)
GATGATTGTTCTCCCAGCTGATGAATTGCAAGAATCGAGTAAACAAATTTTCCTAATCTTTCTGTTCAAGCGCCATCTAC | 1.24 RPM ratio (pull-down/input)
GATGATTGTTCTCCCAGCTGATGAATTGTTGTCTTCGAGTAAACAAATTTTCCTAATCTTTCTGTTCAAGCGCCATCTAC | 2.29 RPM ratio (pull-down/input)
GATGATTGTTCTCCCAGCTGATGAATTCTGGCTTTCGAGTAAACAAATTTTCCTAATCTTTCTGTTCAAGCGCCATCTAC | 0.852 RPM ratio (pull-down/input)

Sequence | binding signal
GATGATTGTTCTCCCAGCTGATGAATTATGGGCTTCGAGTAAACAAATTTTCCTAATCTTTCTGTTCAAGCGCCATCTAC | 0.874 RPM ratio (pull-down/input)
GATGATTGTTCTCCCAGCTGATGAATTGAGATATTCGAGTAAACAAATTTTCCTAATCTTTCTGTTCAAGCGCCATCTAC | 0.881 RPM ratio (pull-down/input)
GATGATTGTTCTCCCAGCTGATGAATTCCGCATGTCGAGTAAACAAATTTTCCTAATCTTTCTGTTCAAGCGCCATCTAC | 0.892 RPM ratio (pull-down/input)
GATGATTGTTCTCCCAGCTGATGAATTTATACGGTCGAGTAAACAAATTTTCCTAATCTTTCTGTTCAAGCGCCATCTAC | 0.938 RPM ratio (pull-down/input)
GATGATTGTTCTCCCAGCTGATGAATTTCTCCGATCGAGTAAACAAATTTTCCTAATCTTTCTGTTCAAGCGCCATCTAC | 0.941 RPM ratio (pull-down/input)
GATGATTGTTCTCCCAGCTGATGAATTGCAAATGTCGAGTAAACAAATTTTCCTAATCTTTCTGTTCAAGCGCCATCTAC | 1.39 RPM ratio (pull-down/input)
GATGATTGTTCTCCCAGCTGATGAATTCGCACCATCGAGTAAACAAATTTTCCTAATCTTTCTGTTCAAGCGCCATCTAC | 0.958 RPM ratio (pull-down/input)
GATGATTGTTCTCCCAGCTGATGAATTCTGTGAATCGAGTAAACAAATTTTCCTAATCTTTCTGTTCAAGCGCCATCTAC | 0.961 RPM ratio (pull-down/input)
GATGATTGTTCTCCCAGCTGATGAATTATCCATATCGAGTAAACAAATTTTCCTAATCTTTCTGTTCAAGCGCCATCTAC | 1.04 RPM ratio (pull-down/input)
GATGATTGTTCTCCCAGCTGATGAATTTAACCGTTCGAGTAAACAAATTTTCCTAATCTTTCTGTTCAAGCGCCATCTAC | 0.876 RPM ratio (pull-down/input)
GATGATTGTTCTCCCAGCTGATGAATTCGCGAGATCGAGTAAACAAATTTTCCTAATCTTTCTGTTCAAGCGCCATCTAC | 0.83 RPM ratio (pull-down/input)
GATGATTGTTCTCCCAGCTGATGAATTATTCATGTCGAGTAAACAAATTTTCCTAATCTTTCTGTTCAAGCGCCATCTAC | 1.09 RPM ratio (pull-down/input)
GATGATTGTTCTCCCAGCTGATGAATTTAGAGAATCGAGTAAACAAATTTTCCTAATCTTTCTGTTCAAGCGCCATCTAC | 1.04 RPM ratio (pull-down/input)
GATGATTGTTCTCCCAGCTGATGAATTGGTCTAATCGAGTAAACAAATTTTCCTAATCTTTCTGTTCAAGCGCCATCTAC | 1.12 RPM ratio (pull-down/input)
GATGATTGTTCTCCCAGCTGATGAATTTGCGAAGTCGAGTAAACAAATTTTCCTAATCTTTCTGTTCAAGCGCCATCTAC | 0.924 RPM ratio (pull-down/input)
GATGATTGTTCTCCCAGCTGATGAATTCGGCCATTCGAGTAAACAAATTTTCCTAATCTTTCTGTTCAAGCGCCATCTAC | 0.918 RPM ratio (pull-down/input)
GATGATTGTTCTCCCAGCTGATGAATTCGTATCGTCGAGTAAACAAATTTTCCTAATCTTTCTGTTCAAGCGCCATCTAC | 0.979 RPM ratio (pull-down/input)
GATGATTGTTCTCCCAGCTGATGAATTACTAATGTCGAGTAAACAAATTTTCCTAATCTTTCTGTTCAAGCGCCATCTAC | 1.28 RPM ratio (pull-down/input)
GATGATTGTTCTCCCAGCTGATGAATTGCAATGTTCGAGTAAACAAATTTTCCTAATCTTTCTGTTCAAGCGCCATCTAC | 1.42 RPM ratio (pull-down/input)
GATGATTGTTCTCCCAGCTGATGAATTACACTCATCGAGTAAACAAATTTTCCTAATCTTTCTGTTCAAGCGCCATCTAC | 1.13 RPM ratio (pull-down/input)
GATGATTGTTCTCCCAGCTGATGAATTTACGATATCGAGTAAACAAATTTTCCTAATCTTTCTGTTCAAGCGCCATCTAC | 1.3 RPM ratio (pull-down/input)

Sequence | binding signal
GATGATTGTTCTCCCAGCTGATGAATTATCCTTCTCGAGTAAACAAATTTTCCTAATCTTTCTGTTCAAGCGCCATCTAC | 0.844 RPM ratio (pull-down/input)
GATGATTGTTCTCCCAGCTGATGAATTGTCGTGCTCGAGTAAACAAATTTTCCTAATCTTTCTGTTCAAGCGCCATCTAC | 0.933 RPM ratio (pull-down/input)
GATGATTGTTCTCCCAGCTGATGAATTCTGATCCTCGAGTAAACAAATTTTCCTAATCTTTCTGTTCAAGCGCCATCTAC | 0.734 RPM ratio (pull-down/input)
GATGATTGTTCTCCCAGCTGATGAATTTCGTATATCGAGTAAACAAATTTTCCTAATCTTTCTGTTCAAGCGCCATCTAC | 1.1 RPM ratio (pull-down/input)
GATGATTGTTCTCCCAGCTGATGAATTCGATTACTCGAGTAAACAAATTTTCCTAATCTTTCTGTTCAAGCGCCATCTAC | 0.91 RPM ratio (pull-down/input)
GATGATTGTTCTCCCAGCTGATGAATTTTGGCCTTCGAGTAAACAAATTTTCCTAATCTTTCTGTTCAAGCGCCATCTAC | 0.886 RPM ratio (pull-down/input)
GATGATTGTTCTCCCAGCTGATGAATTAGCAACCTCGAGTAAACAAATTTTCCTAATCTTTCTGTTCAAGCGCCATCTAC | 1.04 RPM ratio (pull-down/input)
GATGATTGTTCTCCCAGCTGATGAATTCCTAGCGTCGAGTAAACAAATTTTCCTAATCTTTCTGTTCAAGCGCCATCTAC | 0.861 RPM ratio (pull-down/input)
GATGATTGTTCTCCCAGCTGATGAATTAGACATATCGAGTAAACAAATTTTCCTAATCTTTCTGTTCAAGCGCCATCTAC | 1.06 RPM ratio (pull-down/input)
GATGATTGTTCTCCCAGCTGATGAATTTTAAGAATCGAGTAAACAAATTTTCCTAATCTTTCTGTTCAAGCGCCATCTAC | 0.988 RPM ratio (pull-down/input)
GATGATTGTTCTCCCAGCTGATGAATTTGGCCGTTCGAGTAAACAAATTTTCCTAATCTTTCTGTTCAAGCGCCATCTAC | 0.867 RPM ratio (pull-down/input)
GATGATTGTTCTCCCAGCTGATGAATTGGACTTGTCGAGTAAACAAATTTTCCTAATCTTTCTGTTCAAGCGCCATCTAC | 0.846 RPM ratio (pull-down/input)
GATGATTGTTCTCCCAGCTGATGAATTAATTGGTTCGAGTAAACAAATTTTCCTAATCTTTCTGTTCAAGCGCCATCTAC | 0.987 RPM ratio (pull-down/input)
GATGATTGTTCTCCCAGCTGATGAATTGCCCCTCTCGAGTAAACAAATTTTCCTAATCTTTCTGTTCAAGCGCCATCTAC | 0.852 RPM ratio (pull-down/input)
GATGATTGTTCTCCCAGCTGATGAATTCTCGATCTCGAGTAAACAAATTTTCCTAATCTTTCTGTTCAAGCGCCATCTAC | 0.774 RPM ratio (pull-down/input)
GATGATTGTTCTCCCAGCTGATGAATTAGTCTTGTCGAGTAAACAAATTTTCCTAATCTTTCTGTTCAAGCGCCATCTAC | 1.02 RPM ratio (pull-down/input)
GATGATTGTTCTCCCAGCTGATGAATTATGGGCATCGAGTAAACAAATTTTCCTAATCTTTCTGTTCAAGCGCCATCTAC | 1.04 RPM ratio (pull-down/input)
GATGATTGTTCTCCCAGCTGATGAATTTTTCCATTCGAGTAAACAAATTTTCCTAATCTTTCTGTTCAAGCGCCATCTAC | 0.965 RPM ratio (pull-down/input)
GATGATTGTTCTCCCAGCTGATGAATTGCTGGTGTCGAGTAAACAAATTTTCCTAATCTTTCTGTTCAAGCGCCATCTAC | 1 RPM ratio (pull-down/input)
GATGATTGTTCTCCCAGCTGATGAATTTACTTCCTCGAGTAAACAAATTTTCCTAATCTTTCTGTTCAAGCGCCATCTAC | 1.28 RPM ratio (pull-down/input)
GATGATTGTTCTCCCAGCTGATGAATTAATCTCCTCGAGTAAACAAATTTTCCTAATCTTTCTGTTCAAGCGCCATCTAC | 0.857 RPM ratio (pull-down/input)
